This is one part of the list.

The subject of the experiment is PF3D7_0420300 AP2 domain 1 (GST-tagged). Nature of the experiment: gcPBM binding intensity (ln(normalized median fluorescence intensity)); higher = stronger DNA binding. In short, it runs like this: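 Each value is the highest Masliner-normalised natural-log median intensity across replicate spots of either orientation of a probe. The probes were primer-extended double-stranded 36-bp intergenic genomic sequences on an Agilent 4 × 180k array, alongside negative controls, exposed for 1 h to GST-tagged P. falciparum DNA-binding domains expressed in E. coli. Bound protein was picked up with Alexa488 anti-GST antibody and scanned at 488 nm.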
Take “TTAACGCTTATTTTTTGTACTTATTTTATTTTAAAT [XGTACX_site3977]”: the “gcPBM binding intensity (ln)” value is 9.59.
Then “CAACATTAATATAAAGCACACATATATATAATATAT [CACACA_site8064]”, with 9.53; and “ACTCTATAATAAAATACACACAAGACTATCTAATAT [CACACA_site1796]”, with 9.61.
Next, “ATATATACATATAATTGTACTTGTGTTGTTTTTCTT [XGTACX_site1870]”: 9.75; “TACAAAAGCGATACGGCACACATTTCCTGTTTAAAT [CACACA_site2746]”: 9.41; “AAAAGATTGCTCCGCATGCACCTCCAAAAGTTCCTT [GTGCAC_site9993]”: 9.08.
Next, “TTTGCTTCCAAAAGTCGTACAAAAAATATTAAATAT [XGTACX_site4171]”: 8.87; “ACAGAATACATATACACACATACAAAAAAGTGCATA [CACACA_site987]”: 9.78; “CATTATGTTGTAAATGCACACATACATATACACAGT [CACACA_site8990]”: 9.51.
In the case of “TCATACTGTATATTTTGTACTTATATATATATTATA [XGTACX_site6136]”, the “gcPBM binding intensity (ln)” value turned out to be 9.52.
Next, “TTATTTTGTTTTAAAAGTACACACTTTTAATTAGAT [XGTACX_site2271]”: 9.22; “ATAATAAGCAAACACACACACACAAAAAAAAAAAAA [CACACA_site720]”: 10.2.
Next, “TATATAAACACGTACACACACATATAGGTATTTATA [CACACA_site7615]”: 9.97; “CTTTTCTTTTTTTTTTGTACATAAAATTATTCCTTA [XGTACX_site3924]”: 9.21; “TTTTGTTGCTCTTTTTTTTTTTTTTTTAACTGTATG [CACACA_negctrl_site1072]”: 9.52.
Next, “AATATAGTCACACATACACACATATAGATTTATATA [CACACA_site7223]”: 9.7; “AAAAAAAAAAAAAGGTGTACATAAGTAAATTCATAT [XGTACX_site4206]”: 9.47.
As to “AACCAATATGTGTATACACACATAAATATAAATATA [CACACA_site7729]”, the “gcPBM binding intensity (ln)” value is 9.57.
Next, “TATCAAAATTAGTATACACACAAAATTATTCAAATA [CACACA_site2232]”: 9.43.
Next, “TAAAAGGAAAAAAAAGCACACACAATATTACTTGAA [CACACA_site8831]”: 9.77.
Next, “TATACATATAAATTGTGTACACATATATATATATTT [XGTACX_site7875]”: 9.2; “AATATATAAATTAATACATGCACATATAGAAAGGGA [TGCATGCA_site472]”: 9.7; “CTTTTTACTTAATACACACACACACTAGAAAAAAAA [CACACA_site4680]”: 10.
For “AAACAAAAAATTTAAAGTACAAAAATTATGATTGTT [XGTACX_site465]”, the “gcPBM binding intensity (ln)” value is 9.32.
Then “AAAAAATTAATATTGACACACATTTTTAAGAATAAT [CACACA_site239]”, with 9.32; and “CAAAAGGATAGGCACACACACACACCCATATATATA [CACACA_site2199]”, with 10.1.
As for “AATATGTCTATATTTTTTATATGGAAATATTATAAA [GTGCAC_negctrl_site700]”, the “gcPBM binding intensity (ln)” value was 8.81.
Then “TTTTTTTTTTTTTTTTTTTTTTTATCTATTATTTAT [XGTACX_negctrl_site496]”, with 8.34; and “AATACTATTATTATTGCACACTTATTATCCCTCGGA [CACACA_site4262]”, with 9.4; and TATCCATTTCTTTATGTGCACATTAAATATATTTGT, with 9.48.
Next, “TATAAAAATATTTCTACACACATTAATATATATATA [CACACA_site1150]”: 9.46; “AATATATAGAGAGATATGCACACTGTATGAATGCAC [CACACA_site2677]”: 9.4; “TATATTAATAATAAGTGTACATATATATATATTTTT [XGTACX_site288]”: 9.19.
Regarding “TATTTTTTCTTTCATTGTACTTTTTTTTTGTTTTGT [XGTACX_site4081]”, the “gcPBM binding intensity (ln)” value came to 9.69.
As for “ATTTGTAAAAAATTCATACACACGTCTTATTTTTAA [CACACA_site1390]”, the “gcPBM binding intensity (ln)” value amounted to 9.34.
Next, “AATGAGAAATATAATTGTACATATATTTATTTTCAT [XGTACX_site3669]”: 9.16; “TATTTTGTAATAATTACACACGGAATTATAACAGAA [CACACA_site2355]”: 9.47; “TCTTAATTTGTTATATGTACATAATATAATTGTATA [XGTACX_site5184]”: 9.21.
Then “TTATATTAATAAAAAGAAAATCATTTTTTCTTTTAT [CACACA_negctrl_site1595]”, with 8.66; and “ATATATATATTTATATTTATATGTAAATATCAACGT [TGCATGCA_negctrl_site32]”, with 9.2; and “ATTGTGTTAATGAAATGTACATTTTCTCTACGTTAA [XGTACX_site1322]”, with 9.18.
Next, “AATATTATGTATAACCGTACATTATATATATAATAA [XGTACX_site1594]”: 9.21; “ATTAAAATAATTTAATTTCTTAGACACAATTTGTAA [GTGCAC_negctrl_site331]”: 8.85; “TTAAACTTGTTTTGGATGCACTATATAATTCATTTT [GTGCAC_site9549]”: 9.17.
As to “TCCTACATATTATAGTGTACATTTTCATGTTCATAT [XGTACX_site4308]”, the “gcPBM binding intensity (ln)” value was determined as 9.42.
Then “AAGTATTATATATTTTGTACATATATAAAACCACAA [XGTACX_site5508]”, with 9.29.
Then “TATTTATATTTATATACACACATACATATTTATATT [CACACA_site6535]”, with 9.57; and “TATGTTCCTTTTTGTTGTACTGAAAAATTATGTTCA [XGTACX_site3981]”, with 9.2; and “ATAATATAAATTAATTTACACACTAATAAATATATA [CACACA_site9259]”, with 9.33.
Then “ATTTTAAATTTATCTGTGCACAGTATTATATAAGCA [GTGCAC_site9806]”, with 9.07; and “TATATATATATATGTGCACACCAATTGTATGTAATA [CACACA_site3888]”, with 9.45.
As to “AATATAAAATCAAGAAATTAAAAAAAAACAGAAAAC [CACACA_negctrl_site1004]”, the “gcPBM binding intensity (ln)” value was determined as 9.8.
Then “ACAAGATAATAGAGAAGTACTAATAAACATACACAA [XGTACX_site6617]”, with 9.5; and “TCATAAAAGATTAAGTGTACATGTGCTACTCTTATA [XGTACX_site6255]”, with 9.07; and “AGGTTTATAAAAAAAAAAAAAAAAAAAAAAAAAAAA [GTGCAC_negctrl_site113]”, with 8.63.
Then “ACCCAGTGTATTCATAGTACACGCTCATATATTATC [XGTACX_site423]”, with 9.52.

The values above are taken from the supplement of paper PMC11417369.
